Experimental data reported in the supplement of paper PMC3334620.
In all, about 33,000 sequences were measured (“E-score (-0.5 to 0.5)”: median about -0.056, highest 2% from about 0.38 on). This is one part of the list.

target: Stb4 (UniProt P50104); experiment: PBM E-score (8-mer binding enrichment) (E-score (-0.5 to 0.5)); higher = stronger / more preferred TF binding; most listed sequences are background and not binding sites; conditions: protein concentration: 200 nM; construct: GST-DNA-binding domain
Outline: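 GST-tagged yeast TFs (full-length or DNA-binding domain) were made by PURExpress in vitro transcription/translation and applied at about 100-200 nM to universal all-10-mer Agilent arrays. The arrays were made double-stranded by primer extension, on fresh or once-stripped slides. Bound protein was detected with fluorescent anti-GST, and scans were normalised with masliner. Each ungapped eight-base word, pooled with its reverse complement, received an E-score (modified Wilcoxon-Mann-Whitney statistic) from the Universal PBM Analysis Suite.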

Sequence	PBM E-score
CGGTACGC	0.221
AACTGCTA	-0.222
GAAAGCGA	0.0337
GATCTAGA	-0.0828
ACATCCAT	-0.113
AACTAAGA	0.0142
AGCCTCTG	-0.291
CCCAAAGA	-0.0964
CAGGTGTC	-0.0286
TACGGACA	-0.0114
AGAATGTC	-0.248
ATCTTGTA	-0.0999
ACACAATA	-0.0748
TACACGCA	-0.314
TAAGCCAA	-0.239
GACAGTGA	-0.118
GAAGATGC	0.0662
ACGCGGTG	-0.136
AATACAAA	0.119
AAGGGCTG	-0.214
CCGATATC	0.297
CGCCAAAC	-0.0186
GAACCTAA	0.105
GGAGGGAA	-0.0175
CAGACAGG	-0.201

Sequence	PBM E-score
CCTATACC	0.0471
AGATTGGA	-0.0892
GGCGATCA	-0.0874
CATTGCAA	-0.194
TAAAGCAA	-0.174
CTCGCCCA	-0.0959
AGGACGAA	0.0412
AATGCCGT	0.277
CGCAGTAG	-0.0294
CATGAGCC	-0.197
AATCACTA	-0.0272
ATTGGGGA	-0.245
TGCAGCCA	-0.125
CTAGTGAC	-0.247
AGCCTTCA	-0.0983
AATTGCCA	-0.103
CCATAGCG	-0.222
ATTGTCCG	0.262
CGCATCGA	-0.0473
AACACCTC	-0.185
AGCCAGCT	-0.222
TATCACCA	-0.158
GGTACAAA	0.0208
CTCGATGA	-0.0395
CTAGAGGC	-0.321

Sequence	PBM E-score
CCGTCTCG	0.264
GTGCCGGA	0.37
GCTTAACC	-0.0848
AACCACTA	-0.229
GAGTAAGA	-0.0951
GGACGGGA	0.181
AGTGACGC	-0.0102
AATATGAT	-0.0156
GTTCCTGA	-0.0759
CGCTTTTA	0.0375
ATCACGGC	0.131
AGTGCAGC	0.0482
ACGATCGA	-0.19
AACTTGCT	-0.0328
TATTCCGA	0.462
CGCATAAC	-0.113
ATTACGTC	-0.0695
TACTGCAA	-0.0607
ACCTGGAG	-0.148
GCTCGACA	-0.311
CAGGCCTC	-0.141
CGAAACAC	0.0594
GACTTCCC	0.0994
AACAAGGC	-0.149
CACGATTC	0.0694

Sequence	PBM E-score
GGCATAAC	-0.107
AACATGGG	-0.0372
CTGTCGGA	0.353
ACACGTGG	-0.239
AGATGCTA	-0.111
AAATGCAT	-0.0657
ATGACAGG	-0.22
ACAAGTCA	-0.247
ACCCTTGG	-0.208
TCCAGCCA	-0.321
AGCAAGGC	-0.0869
CCAATCGC	-0.153
TACAGTGA	-0.308
TGCAGGCA	-0.208
CGCTCAAC	-0.11
AGCAGGAT	-0.198
ACCCCCGC	0.0869
ACATTCGA	0.0103
ATAATAAT	-0.0296
GTTGGGAA	0.0755
GAACAGAC	0.134
GGGATATA	0.168
AGCCGGGC	0.166
ATGTTTAC	-0.113
CACGTCAG	-0.212

Sequence	PBM E-score
ATAACTAA	-0.0748
CGTAGGAG	0.0593
ACTGGTCC	0.136
GGAGGTGA	-0.0309
TCCATCAA	-0.0134
AAACCTTG	-0.347
GGCTGCAC	0.107
GGCATTAA	0.0712
GATGCTTA	-0.00303
AGTCAACC	-0.0246
GCGCAGAA	-0.0596
AAGTATCT	0.0592
ATTCGATC	0.0474
GACAGGCA	-0.121
ACTGAAGT	-0.122
GTGGGTAA	0.0335
CGGTGTAA	0.126
AAAGTATT	-0.146
CACGCGCC	0.0048
GGTATAGA	0.0466
GAGCAGGC	-0.135
ATCATAAG	-0.0519
TAGGCCAA	-0.0277
AGCCCCGA	0.237
ACAGGAGT	-0.174

Sequence	PBM E-score
AGCACGGC	0.151
ACTTAGAA	-0.15
GAGTCCCC	-0.0682
ATCCAATC	-0.0238
TACGCTGA	0.031
TTATGGAA	-0.154
GTCAGAGA	-0.222
ATGCAAAC	-0.0921
ATTGACGA	-0.138
CAGCCTGA	-0.171
CCCATAAA	-0.06
ACTTTTAC	0.115
ATCCGGAG	0.385
CGCCTGTA	0.0386
AATAAATG	-0.0394
AAACAATG	-0.254
AGAAGTCG	-0.0869
CATGTCTA	-0.183
GTGGGCTA	-0.178
CCCACCGG	0.208
GTGGATGA	-0.14
ACATGCAT	-0.0931
AGAAATAA	-0.0758
GCCATAGA	-0.232
AATGGTGA	-0.252

Sequence	PBM E-score
CGGGCTGA	0.0911
AGACTTAA	-0.149
AATCTTAA	-0.149
CGGCGAAA	0.201
TGCACACA	-0.236
CTTCGATC	0.00255
CATGGCCG	0.0847
CACAACGG	0.0466
GATCCGTA	0.351
CCTTGAGC	-0.0908
ATGGAAGG	-0.159
AAGCCGTC	0.187
GAACCTGC	-0.113
AGATTTAC	-0.0548
ACTGTCAT	-0.148
AAGAACAA	0.0482
AAACAGGC	-0.0186
GGAGAGAA	0.0164
ATGGTACC	0.106
ACCGCTCC	0.0434
AACAGTCA	-0.213
ACAGTCAT	-0.108
